Reference: PubChem BioAssay (NCATS)
“And” between values parts separate entries of the source, which are not always exact repeats. Equal entries are not always repeated. Inconclusive means that the source gave no clear call. Such entries were picked first, then a sample of the others. Where the call is inconclusive, the potency comes from a doubtful curve fit. The source made the active and inactive calls. Unless noted, the call rests on the fitted dose curve; in most records, active means well fitted inhibition curve with a large enough effect; inconclusive means small, poorly fitted or top-dose-only effect; inactive means no such curve, though single readings can be large or run the other way.

Columns and labels:
[1] = biological target: Aldehyde dehydrogenase, mitochondrial (Homo sapiens) (UniProt P05091); assay: qHTS for Inhibitors of the Aldehyde Dehydrogenase Family (ALDH2) Confirmatory screens (AID 2061303; active means well fitted inhibition curve with a large enough effect; inconclusive means small, poorly fitted or top-dose-only effect; inactive means no such curve, though single readings can be large or run the other way; title and protocol of this record describe different tests; further: nearly all actives have a fitted effect of over 45% in size); conditions: ALDH inhibition qHTS; activity change, negative = inhibition: at 45.4 µM (top of the series)
[2] = qHTS for Inhibitors of the Aldehyde Dehydrogenase Family (ALDH1A2, ALDH1A3, ALDH2, ALDH3A1) (AID 2061307); conditions: ALDH inhibition qHTS; activity change, negative = inhibition: at 50.3 µM (top of the series) unless noted; further: nearly all actives have a fitted effect of over 50% in size; on potency: test system not described further here
[3] = biological target: Retinaldehyde dehydrogenase 3 (Homo sapiens) (UniProt P47895); assay: qHTS for Inhibitors of the Aldehyde Dehydrogenase Family (ALDH1A3) Confirmatory screens (AID 2061311); conditions: activity change, negative = inhibition: at 46 µM (top of the series); further: nearly all actives have a fitted effect of over 60% in size
[4] = biological target: Retinal dehydrogenase 2 (Homo sapiens) (UniProt O94788); assay: qHTS for Inhibitors of the Aldehyde Dehydrogenase Family (ALDH1A2) Confirmation screens (AID 2061314); conditions: activity, negative = inhibition: at 45.9 µM (top of the series) unless noted; further: nearly all actives have a fitted effect of over 65% in size
[5] = biological target: Aldehyde dehydrogenase 1A1 (Homo sapiens) (UniProt P00352); assay: qHTS for Inhibitors of the Aldehyde Dehydrogenase Family (ALDH1A1) Confirmatory screens (AID 2061316); conditions: activity change, negative = inhibition: at 47.3 µM (top of the series); further: nearly all actives have a fitted effect of over 65% in size
Potency means the concentration at half of the fitted maximal effect; tags describe the fitted curve by direction and shape.

Structure (SMILES)	Potency [1]	Potency [2]	Potency [3]	Potency [4]	Potency [5]
N#Cc1nc(Nc2ccccc2)nc(NC2CCCC2)n1	active: 1.78 µM	active: 0.631 µM	inconclusive: 14.1 µM [inhibitor, partial curve, poor fit]	inconclusive: 11.3 µM [inhibitor, partial curve]	inconclusive: 28.2 µM [inhibitor, partial curve]
COc1ccc(CN(Cc2ccccc2)C(=O)c2ccccc2N)cc1COc1ccc(NC(C)=O)cc1	inactive	inconclusive: 20.1 µM [inhibitor, partial curve, poor fit]	inconclusive: 15.9 µM [inhibitor, partial curve, poor fit]	inconclusive: 31.8 µM [inhibitor, single point]	inconclusive: 17.9 µM [inhibitor, partial curve, poor fit]
FC(F)(F)c1ccccc1-c1nc(NCC23CC4CC(CC(C4)C2)C3)c2ccccc2n1	inconclusive: 28.3 µM [inhibitor, partial curve, poor fit]	inconclusive: 10.7 µM [inhibitor, partial curve]	inconclusive: 25.2 µM [inhibitor, partial curve]	inconclusive: 10.1 µM [inhibitor, partial curve, poor fit]	inconclusive: 17.9 µM [inhibitor, partial curve]
c1nc(NCC2CCCOC2)c2cc(-c3ccc4c(c3)OCO4)ccc2n1 (stereo not given)	inconclusive: 22.5 µM [inhibitor, partial curve]	inconclusive: 12.7 µM [inhibitor, partial curve]	inconclusive: 31.8 µM [inhibitor, single point]	active: 11.3 µM	inconclusive: 11.3 µM [inhibitor, partial curve]
COc1ccc(C2Nc3ccccc3C(=O)N2Cc2ccccc2)cc1COc1ccc(NC(C)=O)cc1 (stereo not given)	inconclusive: 17.8 µM [inhibitor, partial curve, poor fit]	active: 3.18 µM	inconclusive: 17.8 µM [inhibitor, full curve]	inconclusive: 10 µM [inhibitor, full curve]	inconclusive: 22.5 µM [inhibitor, partial curve]
CC/C=C/C(O)C(O)C1=C(C)C(=O)C2(O1)C(=O)NC(OC)(C(=O)c1ccccc1)C2O (stereo not given)	inconclusive: 7.78 µM [inhibitor, partial curve, poor fit]	inactive	inconclusive: 6.18 µM [inhibitor, partial curve, poor fit]	inactive	inconclusive: 7.78 µM [inhibitor, partial curve]
O=C(Nc1cccc([S+](=O)([O-])Nc2ccccc2F)c1)c1ccccc1	inactive	inactive	inconclusive: 12.7 µM [inhibitor, partial curve]	inactive	inactive
O=C1Nc2ccccc2/C1=C\c1cc(Br)c(O)c(Br)c1	inconclusive: 12.7 µM [inhibitor, partial curve]	inconclusive: 20.1 µM [inhibitor, partial curve]	inconclusive: 28.3 µM [inhibitor, single point]	inconclusive: 20.1 µM [inhibitor, partial curve]	inconclusive: 25.2 µM [inhibitor, single point]
COc1ccc(S(=O)(=O)Nc2cccc(-c3ccc(N4CCCCCC4)nn3)c2)c(OC)c1	active: 28.2 µM	active: 28.2 µM and active: 2.51 µM	inactive	inactive	inactive
O=C(NCCCN1CCNCC1)c1cccc(-c2cc(O)c3ncccc3c2)c1	inconclusive: 7.98 µM [inhibitor, partial curve, poor fit]	inconclusive: 0.318 µM [inhibitor, full curve, poor fit]	active: 10.1 µM	inconclusive: 7.12 µM [inhibitor, partial curve, poor fit]	inactive
CC(=O)Nc1sc2c(c1-c1nc3ccccc3s1)CN(C(C)C)C2	inconclusive: 22.5 µM [inhibitor, partial curve, poor fit]	inactive	inactive	inconclusive: 22.5 µM [inhibitor, partial curve, poor fit]	inconclusive: 12.7 µM [inhibitor, partial curve]
CC(=O)c1ccc(NC(=O)c2cc(S(=O)(=O)N3CCOCC3)ccc2C)cc1	inconclusive: 15.8 µM [inhibitor, partial curve, poor fit]	inactive	inconclusive: 18.2 µM [inhibitor, partial curve]	inactive	inconclusive: 20.5 µM [inhibitor, partial curve]
O=C1Nc2ccccc2C12CC2c1cc(Cl)c(O)c(Cl)c1 (stereo not given)	inconclusive: 0.316 µM [inhibitor, full curve, poor fit]	inconclusive: 15.8 µM [inhibitor, partial curve, poor fit]	inconclusive: 0.225 µM [inhibitor, full curve]	inconclusive: 14.1 µM [inhibitor, partial curve, poor fit]	inactive
CCOC(=O)c1c(-c2ccccc2)no[n+]1[O-]	inactive	inconclusive: 20.1 µM [inhibitor, partial curve]	inactive	inconclusive: 20.1 µM [inhibitor, partial curve]	inconclusive: 28.3 µM [inhibitor, partial curve]
Cc1ccc(CNc2ccc(N3CCN(C(=O)OC(C)(C)C)CC3)cc2)cc1	inactive	inconclusive: 0.896 µM [inhibitor, full curve]	inconclusive: 12.7 µM [inhibitor, partial curve]	inconclusive: 17.9 µM [inhibitor, partial curve]	inconclusive: 4 µM [inhibitor, partial curve, poor fit]
Cc1ccc(CNc2ncc(N3CCCCC3)cn2)cc1	inconclusive: 14.2 µM [inhibitor, partial curve, poor fit]	inconclusive: 20.1 µM [inhibitor, partial curve]	inconclusive: 25.2 µM [inhibitor, partial curve]	inconclusive: 28.3 µM [inhibitor, single point]	inconclusive: 35.7 µM [inhibitor, partial curve, poor fit]
O=C(Nc1ccc(O)c2ncccc12)c1ccccc1F	inconclusive: 8.96 µM [inhibitor, partial curve, poor fit]	inconclusive: 0.794 µM [inhibitor, full curve, poor fit]	inconclusive: 25.2 µM [inhibitor, partial curve]	inconclusive: 3.18 µM [inhibitor, full curve]	inconclusive: 11.3 µM [inhibitor, partial curve]
CCOCCCNC(=O)Nc1cc(C(=O)NCc2ccc(C(C)C)cc2)ccc1N1CCCC1	inconclusive: 4.58 µM [inhibitor, full curve]	active: 0.726 µM	inconclusive: 4.08 µM [inhibitor, full curve]	inconclusive: 8.14 µM [inhibitor, partial curve]	active: 2.89 µM
CC1=CC(=O)CC(C)(C)C1CCC(C)O[C@@H]1O[C@H](CO[C@@H]2OC[C@@H](O)[C@H](O)[C@H]2O)[C@@H](O)[C@H](O)[C@H]1O (stereo not given in full)	inconclusive: 6.93 µM [inhibitor, partial curve, poor fit]	inconclusive: 11 µM [inhibitor, partial curve]	inconclusive: 5.51 µM [inhibitor, partial curve]	inconclusive: 13.8 µM [inhibitor, partial curve, poor fit]	inconclusive: 11 µM [inhibitor, partial curve, poor fit]
N#CN1CCC(NS(=O)(=O)c2ccc(C(F)(F)F)cc2)CC1	inconclusive: 15.8 µM [inhibitor, partial curve, poor fit]	inconclusive: 0.0794 µM [inhibitor, full curve, poor fit]	inactive	active: 12.7 µM	inactive
O=C(Nc1ccc2c(c1)OCO2)Nc1nnc(-c2ccncc2)s1	inactive	inconclusive: 17.8 µM [inhibitor, partial curve, poor fit]	inconclusive: 14.2 µM [inhibitor, partial curve]	inconclusive: 35.7 µM [inhibitor, partial curve, poor fit]	inactive
COc1ccc(-c2ccc(CNc3ccc4[nH]c(=O)[nH]c4c3)o2)cc1Cl	active: 1.82 µM	inconclusive: 12.9 µM [inhibitor, partial curve]	inconclusive: 18.2 µM [inhibitor, partial curve]	inconclusive: 18.2 µM [inhibitor, partial curve]	active: 7.26 µM
COc1cccc(-c2cc(C(=O)NCC(F)F)c3cnn(C)c3n2)c1	inactive	inactive	active: 5.01 µM	inconclusive: 16.2 µM [inhibitor, partial curve]	inactive
